IC50 is the fitted dose that halves viability relative to control wells, and lower means more sensitive; a fit beyond the top or the lowest dose is shown as a bound at that dose. AUC is the area under the same curve over the 256-fold range up to the top dose, as a fraction; it is 1 without any effect and falls as sensitivity rises. For part of these data: Any top dose called inferred is not printed in the source and was worked back from the curve model. For part of these data: An entry number marks a drug with two screens in the source, which often give different values.
What was measured:
Test in all cases: Viability of human cancer cell lines after 72 h of drug (GDSC screen)
[1] = compound: C/C=C(/C)C(=O)O[C@H]1C(C)=C2[C@H]([C@@H]1OC(=O)CCCCCCC)[C@@](C)(OC(C)=O)C[C@H](OC(=O)CCC)[C@@]1(O)[C@H]2OC(=O)[C@@]1(C)O [Thapsigargin]; conditions: top dose 0.512 µM; top dose inferred
Description: (§1)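 Human cancer cell lines in 384-well plates, medium with 10% serum, drug for 72 h over a 256-fold dose range (nine 2-fold or five 4-fold steps up to the top dose). Adherent lines were fixed and stained with the nucleic acid dye Syto60, suspension lines read with resazurin; signal relative to control wells, capped at 0 and 100%. One two-parameter sigmoid per drug and line, fitted in a mixed model over all curves with the slope shared within a line.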

[2] = compound: COc1cc(N2CCC(O)CC2)ccc1Nc1cc(Nc2ccccc2S(=O)(=O)C(C)C)c2cc[nH]c2n1 [MPS-1-IN-1]; conditions: top dose 20 µM; top dose inferred
Description: as §1

[3] = compound: Cc1cnc(-c2cnc(NCCNc3ccc(C#N)cn3)nc2-c2ccc(Cl)cc2Cl)[nH]1 [CHIR-99021]
Description: as §1

[4] = compound: COc1cc(O)c2c(c1)/C=C/C[C@H](O)[C@H](O)C(=O)/C=C\C[C@H](C)OC2=O [(5Z)-7-Oxozeaenol]; conditions: top dose 10 µM; top dose inferred
Description: as §1

[5] = compound: Cc1ccc(F)c(NC(=O)Nc2ccc(-c3cccc4[nH]nc(N)c34)cc2)c1 [ABT-869]; conditions: top dose 1.024 µM; top dose inferred
Description: as §1

[6] = compound: Nc1ccn([C@@H]2O[C@H](CO)[C@@H](O)[C@@H]2O)c(=O)n1 [Cytarabine]; conditions: top dose 2 µM
Description: as §1

[7] = compound: C[C@]1(c2nc3c(C(N)=O)cccc3[nH]2)CCCN1 [ABT-888]; conditions: top dose 5 µM; top dose inferred
Description: as §1

[8] = compound: CCn1c(-c2nonc2N)nc2cnc(Oc3cccc(NC(=O)c4ccc(OCCN5CCOCC5)cc4)c3)cc21 [GSK269962A]; conditions: top dose inferred
Description: as §1

[9] = compound: O=c1cc(-c2cccc3c2Sc2ccccc2S3)oc(N2CCOCC2)c1 [KU-55933]; conditions: top dose 10 µM
Description: as §1

[10] = compound: COc1cc2ncnc(-n3nc(-c4ccccn4)nc3N)c2cc1OC [CP466722]; conditions: top dose 16 µM; top dose inferred
Description: as §1

[11] = compound: C=CC(=O)Nc1cc(-n2c(=O)ccc3cnc4ccc(-c5cn[nH]c5)cc4c32)ccc1C [QL-X-138]; conditions: top dose 10.24 µM; top dose inferred
Description: as §1

[12] = compound: COc1nc(C)cnc1NS(=O)(=O)c1cccnc1-c1ccc(-c2nnco2)cc1 [Zibotentan]; conditions: top dose 20 µM; top dose inferred
Description: as §1

[13] = compound: Cc1ccc(-c2c(C(=O)CCl)n(CCCO)c3ncnc(N)c23)cc1 [CMK]; conditions: top dose 4 µM; top dose inferred
Description: as §1

[14] = top dose 2.56 µM, screen: GDSC drug entry 154
[15] = top dose 10 µM, screen: GDSC drug entry 1241, top dose inferred
[16] = top dose 2.5 µM, screen: GDSC drug entry 127
[17] = top dose 5 µM, screen: GDSC drug entry 1192

Cell Line	AUC [1]	IC50 [1] [µM]	AUC [2]	IC50 [2] [µM]	AUC [3, 14]	IC50 [3, 14] [µM]	AUC [3, 15]	IC50 [3, 15] [µM]	AUC [4]	IC50 [4] [µM]	AUC [5]	IC50 [5] [µM]	AUC [6]	IC50 [6] [µM]	AUC [7]	IC50 [7] [µM]	AUC [8, 16]	IC50 [8, 16] [µM]	AUC [8, 17]	IC50 [8, 17] [µM]	AUC [9]	IC50 [9] [µM]	AUC [10]	IC50 [10] [µM]	AUC [11]	IC50 [11] [µM]	AUC [12]	IC50 [12] [µM]	AUC [13]	IC50 [13] [µM]
NMC-G1 (glioma, adherent)	0.368	0.0127	0.865	> 20	0.961	> 2.56	0.761	4.33	0.554	0.905	0.98	> 1.02	0.837	1.8	0.946	> 5	0.94	> 2.5	0.87	> 5	0.98	> 10	0.666	3.24	0.569	1.04	0.975	> 20	0.899	> 4
NOS-1 (osteosarcoma, adherent)	0.143	< 0.002	0.738	7.15	0.974	> 2.56	0.941	> 10	0.67	2.08	0.814	0.723	0.833	1.72	0.978	> 5	0.923	> 2.5	0.947	> 5	0.945	> 10	0.481	0.88	0.403	0.326	0.967	> 20	0.867	> 4
NU-DUL-1 (B-cell lymphoma, suspension)	0.359	0.0142	0.88	13.8	0.993	> 2.56	0.992	> 10	0.848	5.32	0.993	> 1.02	0.188	0.0191	0.993	> 5	0.986	> 2.5	0.989	> 5	0.888	7.42	0.471	0.847	0.304	0.204	0.993	> 20	0.873	2.61
OCI-LY-19 (B-cell lymphoma, suspension)	0.318	0.0104	0.789	8.07	0.977	> 2.56	0.921	> 10	0.705	2.23	0.988	> 1.02	0.393	0.0652	0.985	> 5	0.924	> 2.5	0.959	> 5	0.976	> 10	0.43	0.653	0.332	0.227	0.988	> 20	0.942	> 4
OCUB-M (breast, adherent)	0.122	0.00256	0.87	14.5	0.989	> 2.56	0.943	> 10	0.741	2.72	0.989	> 1.02	0.99	> 2	0.99	> 5	0.949	> 2.5	0.735	1.3	0.984	> 10	0.705	3.45	0.276	0.164	0.99	> 20	0.901	3.96
OMC-1 (cervix, adherent)	0.591	0.0576	0.943	> 20	0.988	> 2.56	0.986	> 10	0.761	3.71	0.985	> 1.02	0.736	0.61	0.988	> 5	0.988	> 2.5	0.948	> 5	0.968	> 10	0.841	11.9	0.976	> 10.2	0.988	> 20	0.968	> 4
ONS-76 (medulloblastoma, adherent)	0.243	0.00542	0.973	> 20	0.975	> 2.56	0.983	> 10	0.425	0.385	0.978	> 1.02	0.643	0.321	0.973	> 5	0.938	> 2.5	0.9	> 5	0.984	> 10	0.696	3.73	0.362	0.258	0.973	> 20	0.94	> 4
OPM-2 (myeloma, suspension)	0.283	0.00897	0.797	7.52	0.988	> 2.56	0.993	> 10	0.886	7.54	0.991	> 1.02	0.993	> 2	0.994	> 5	0.954	> 2.5	0.977	> 5	0.992	> 10	0.774	5.16	0.83	4.86	0.989	> 20	0.952	> 4

Source: the supplement of paper PMC4967469
